# PubChem BioAssay AID2451 (National Center for Advancing Translational Sciences (NCATS), 2010)
# Where “and” joins values, the source holds several entries; their conditions need not be identical. Equal values may be shown once. About 2,100 (0.72%) of roughly 290,000 compounds were called active. Inconclusive results, whose numbers are uncertain, are shown with a selection of clear calls. The call rests on the fitted dose curve; in most records, active means well fitted inhibition curve with a large enough effect; inconclusive means small, poorly fitted or top-dose-only effect, or effect the other way; inactive means flat fitted curve, though single readings scatter. Potencies beside an inconclusive call are fits to weak or partial responses and may not hold up.
# Molecular target: Fructose-bisphosphate aldolase (Giardia intestinalis (strain ATCC 50803 / WB clone C6)) (UniProt A8B2U2)
# Test: qHTS Assay for Inhibitors of Fructose-1,6-bisphosphate Aldolase from Giardia Lamblia; further: nearly all actives have a fitted effect of over 55% in size
# Conditions: purified Giardia FBPA; activity, negative = inhibition: at 59.6 µM (top of the series) unless noted
# Method in brief: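 40 nM FBPA preincubated 10 min at RT with compound (up to 57.5 uM final), then substrate plus GAPDH/TPI/NAD/arsenate coupling and diaphorase/resazurin added. Fluorescence read after 20 min at RT, 525/598 nm.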
# On the % scale 0 is the no-effect control and ±100 the full control effect; potency means the concentration at half of the fitted maximal effect; tags describe the fitted curve by direction and shape.
# UniProt A8B2U2, sequence (A8B2U2 whole entry, looked up): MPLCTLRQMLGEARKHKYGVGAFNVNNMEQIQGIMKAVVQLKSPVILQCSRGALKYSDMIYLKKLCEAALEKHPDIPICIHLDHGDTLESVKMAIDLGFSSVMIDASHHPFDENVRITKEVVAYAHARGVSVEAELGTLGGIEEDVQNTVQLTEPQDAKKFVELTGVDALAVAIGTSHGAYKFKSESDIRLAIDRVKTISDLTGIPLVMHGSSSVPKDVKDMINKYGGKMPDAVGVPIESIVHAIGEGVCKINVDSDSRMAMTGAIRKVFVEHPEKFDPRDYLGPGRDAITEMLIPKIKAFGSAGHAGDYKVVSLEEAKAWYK
Structure (SMILES),Potency,"activity, negative = inhibition"
CCOP(=S)(OCC)Oc1cc(C)oc(=O)c1,"inconclusive: 15.8 µM [inhibitor, partial curve]",
O=C(CSc1nnnn1CCCO)Nc1ccc2c(c1)OCO2,inactive,
O=C1C2C3C=CC(C3)C2C(=O)N1CNc1ccc(O)cc1 (configuration not stated),active: 3.15 µM,
COc1ccc(OC)c(CN2CCN(C(=O)COc3cccc(C)c3)CC2)c1,"inconclusive: 19.9 µM [inhibitor, partial curve]",
COC(=O)c1ccc(CO/N=C/c2ccccc2OC)cc1,inactive,
Cc1c(Cc2ccccc2)sc(/N=C/c2c(O)ccc3ccccc23)c1C(N)=O,"inconclusive: 17.7 µM [inhibitor, single point]",
CC(C)(C)c1ccc(OCC(=O)NNC(=S)NC(=O)c2ccco2)c(Br)c1,"inconclusive: 39.8 µM [activator, single point]",
CCOC(=O)C1=C(C)N[C@@]2(O)c3ccccc3C(=O)[C@@]12O,"inconclusive: 22.3 µM [inhibitor, partial curve]",
CCN1CCN(Cc2c(C(=O)N/N=C(\C)c3ccc(Cl)cc3)nnn2-c2nonc2N)CC1,"inconclusive: 25.1 µM [inhibitor, single point]",
COc1cc(NS(=O)(=O)c2ccc(N/C=C(\C#N)c3nc4cc(Cl)ccc4o3)cc2)nc(OC)n1,inactive,
N[C@@H](Cc1cc(I)c(O)c(I)c1)C(=O)O,inactive,
CC1CCc2nn(CC(=O)Nc3ccc(F)cc3F)cc2C1 (configuration not stated),inactive,
Cc1cc(C)cc(NC(=O)CCc2nc3ccccc3[nH]2)c1,inactive,
COc1ccccc1CCNCc1ccc(OC)c(OCc2ccccc2)c1,"inconclusive: 17.8 µM [inhibitor, partial curve]",
N#Cc1c(NCc2ccccc2)ccnc1NCc1cccnc1,inactive,
CC1(C)CC(N=C2C([N+](=O)[O-])=CC=C3C2=NC2(CCCCC2)N3O)CC(C)(C)N1,"inconclusive: 1.12 µM [inhibitor, full curve]",
NNc1cc([N+](=O)[O-])cc2c1C(=O)N(Cc1ccccc1)S2=O (configuration not stated),"inconclusive: 15.8 µM [inhibitor, partial curve]",
CC(C)(C)NC(=O)CCN(/N=C/c1ccc([N+](=O)[O-])o1)C1=NS(=O)(=O)c2ccccc21,inactive,
COc1ccc2c(c1)CC1(CN2C)C(=O)NC(=O)N(c2ccc(C)cc2)C1=O (configuration not stated),"inconclusive: 17.7 µM [inhibitor, single point]",
COc1ccc(CCN(C)CCCOc2ccc(S(=O)(=O)c3[nH]c4ccccc4c3C(C)C)cc2)cc1OC,"inconclusive: 19.9 µM [inhibitor, partial curve]",
CC(C)Cc1nnc(NC(=O)CCC(=O)N2CC(C)CC(C)C2)s1 (configuration not stated),,inconclusive: 32.7% [activator]
Cc1ccc2cccc(O)c2[n+]1[O-],"inconclusive: 14.1 µM [inhibitor, partial curve]",
Cc1nc(S/C(=C/c2ccc(-c3ccc(C(=O)O)cc3)o2)C(=O)O)n[nH]1,"inconclusive: 22.3 µM [inhibitor, partial curve]",
COC(=O)C1=CO[C@@H](C)[C@@H]2CN3CCc4c([nH]c5cc(OC)ccc45)[C@@H]3C[C@H]12,"inconclusive: 14.1 µM [inhibitor, partial curve]",

Structure (SMILES),Potency,"activity, negative = inhibition"
CCCCC1=CC2=C(c3ccco3)C(=O)C(C)(OC(=O)c3ccc(OC)cc3)C(=O)C2=CN1CCCOC(C)C (configuration not stated),"inconclusive: 1.77 µM [inhibitor, full curve] and inconclusive: 2.51 µM [inhibitor, partial curve]",
CCCN1CCc2nc(SCC(=O)Nc3ccc(C)c(Cl)c3)[nH]c(=O)c2C1,"inconclusive: 15.8 µM [inhibitor, single point]",
CCN(CC)CCCNC(=O)CN1C(=O)CSc2ccc(S(=O)(=O)N3CCOCC3)cc21,inactive,
OCCNCc1ccc(-c2ccccc2)cc1,inactive,
CS(=O)(=O)N(CC(=O)N/N=C/c1cc([N+](=O)[O-])ccc1Cl)c1ccccc1,"inconclusive: 15.8 µM [inhibitor, single point]",
CC(C)(C)CC(=O)Nc1nn[nH]n1,"inconclusive: 15.8 µM [inhibitor, partial curve]",
CN(CC(=O)Nc1cccc(F)c1)CC(=O)Nc1ccccc1[N+](=O)[O-],"inconclusive: 19.9 µM [inhibitor, single point]",
O=C(NCC(=O)N(c1ccc2c(c1)OCO2)C(C(=O)NC1CCCC1)c1ccncc1)c1ccco1 (configuration not stated),"inconclusive: 19.9 µM [inhibitor, single point]",
O=C(CSc1n[nH]c(-c2cccnc2)n1)Nc1ccc([N+](=O)[O-])cc1Br,"inconclusive: 25.1 µM [inhibitor, partial curve]",
O=C(Nc1nc(=O)c2ccccc2s1)c1ccccc1,"inconclusive: 17.7 µM [inhibitor, single point]",
COc1ccc(NC(=O)c2cnn(-c3ccccc3)c2C)cc1OC,inactive,
CCOC(=O)CCCCC(=O)c1[nH]c(=O)[nH]c1CSCCO,inactive,
O=[N+]([O-])c1ccc(O)c(/C=N/Nc2ccccn2)c1,active: 5 µM,
CCC(=O)Nc1cccc(-c2ccc(N3CCN(C)CC3)nn2)c1,inactive,
COc1ccc(COCC(O)CN2CCCC(C(F)(F)F)C2)cc1 (configuration not stated),active: 11.2 µM,
Cc1[nH]c2ccc(F)cc2c1CCN(Cc1ccncc1)C(=S)Nc1ccccc1,inactive,
OCC1OC([S-])[C@H](O)C(O)C1O.[Au+] (some centres not stated),inactive,
COc1cc2[nH]c(=S)n(NC(=O)CC(C)C)c(=O)c2cc1OC,"inconclusive: 11.2 µM [inhibitor, partial curve]",
Cc1ccc(C)c(CN2C(=O)COc3ccc(C(=O)c4ccccc4C(=O)O)cc32)c1,"inconclusive: 17.7 µM [inhibitor, partial curve]",
O=c1c(-c2ccc([N+](=O)[O-])cc2)coc2c(O)c(O)ccc12,"inconclusive: 14.1 µM [inhibitor, partial curve]",
O=C(N/N=C/c1ccccn1)c1cc(C2CC2)[nH]n1,active: 17.7 µM,
COc1ccc(N=c2ssnc2Cl)cc1,"inconclusive: 15.8 µM [inhibitor, partial curve]",
O=C(c1ccc(Cl)cc1)C(CN1CCCC1)c1ccccc1 (configuration not stated),"inconclusive: 31.6 µM [inhibitor, single point]",
COc1ccc(NC(=S)NC(=O)c2cccnc2)cc1,active: 7.94 µM,

Structure (SMILES),Potency,"activity, negative = inhibition"
COc1ccc(N(CC(=O)NC2CC3CCC2C3)S(=O)(=O)c2ccc(C)cc2)cc1OC (configuration not stated),inactive,
Cn1c(=O)c2c(ncn2CCC(=O)N/N=C/c2ccccc2)n(C)c1=O,"inconclusive: 19.9 µM [inhibitor, partial curve]",
S=C(Nc1ccc2nccnc2c1)N1CCCC1,"inconclusive: 15.8 µM [inhibitor, partial curve]",
COc1ccc(CCN(C)CCCN2CC(c3ccccc3)CC2=O)cc1OC (configuration not stated),"inconclusive: 15.8 µM [inhibitor, single point]",
COc1cccc(/C=N/NC(=O)CNC(=O)c2ccncc2)c1O,"inconclusive: 3.16 µM [inhibitor, full curve]",
O=C(/C=C/Nc1ccc(F)c(Cl)c1)c1ccco1,"inconclusive: 19.9 µM [inhibitor, single point]",
Cc1ccccc1-c1noc(-c2cccs2)n1,inactive,
CN1CCN(Cc2coc3c(Cl)cc(Cl)cc3c2=O)CC1,active: 12.6 µM,
COc1cc(OC)nc(N/N=C(\c2ccccc2)c2ccncc2)n1,"inconclusive: 15.8 µM [inhibitor, single point]",
c1ccc(CCNCc2cccnc2)cc1,"inconclusive: 8.91 µM [inhibitor, full curve]",
Cc1ccsc1C1C(C#N)=C(N)OC2=C1C(=O)CCC2 (configuration not stated),active: 17.7 µM,
O=C(Nc1nnc(S(=O)(=O)N2CCCCCC2)s1)c1cccc(Br)c1,"inconclusive: 22.4 µM [inhibitor, single point]",
CCOc1cc(/C=N/Nc2nnc(C)n2N)ccc1OC(C)=O,active: 15.8 µM,
Cc1ccccc1C(=O)/C(C#N)=N/Nc1c(C)n(C)n(-c2ccccc2)c1=O,"inconclusive: 17.7 µM [inhibitor, partial curve]",
CC(C)c1cc(=O)oc2c3c4c(cc12)CCCN4CCC3,"inconclusive: 15.8 µM [inhibitor, partial curve]",
CCC(C)N(C)C1CCN(C(=S)Nc2cccc(OC)c2)CC1 (configuration not stated),"inconclusive: 19.9 µM [inhibitor, single point]",
CCCCC[n+]1ccn(-c2nc3ccccc3nc2[N-]S(=O)(=O)c2ccccc2)c1,"inconclusive: 19.9 µM [inhibitor, single point]",
COc1ccc2nc(N=NC3=C(O)CC(C)(C)CC3=O)sc2c1,"inconclusive: 28.1 µM [inhibitor, single point]",
O=C(NC(=S)Nc1ncccn1)c1ccc(Cl)cc1Cl,"inconclusive: 6.29 µM [inhibitor, partial curve]",
O=[N+]([O-])c1ccc(N2CCN(Cc3ccc(Br)o3)CC2)cc1,"inconclusive: 35.5 µM [inhibitor, single point]",
c1ccc(CCN(Cc2ccccc2)C2CCN(C3CCCC3)CC2)cc1,active: 19.9 µM,
CCC(C)Nc1nc(-c2ccc3c(c2)NC(=O)CO3)cs1 (configuration not stated),"inconclusive: 19.9 µM [inhibitor, partial curve]",
CC(C)Cc1nnc(NC(=O)CCS(=O)(=O)c2ccc(Cl)cc2)s1,inactive,
CCCCCCn1cnc2c(c1=O)c1nc3ccccc3nc1n2/N=C/c1ccco1,inactive,
